B1: wild-type T7 RNA polymerase including His6-tag (protein)
chain: MNTINIAKNDFSDIELAAIPFNTLADHYGERLAREQLALEHESYEMGEARFRKMFERQLKAGEVADNAAAKPLITTLLPKMIARINDWFEEVKAKRGKRPTAFQFLQEIKPEAVAYITIKTTLACLTSADNTTVQAVASAIGRAIEDEARFGRIRDLEAKHFKKNVEEQLNKRVGHVYKKAFMQVVEADMLSKGLLGGEAWSSWHKEDSIHVGVRCIEMLIESTGMVSLHRQNAGVVGQDSETIELAPEYAEAIATRAGALAGISPMFQPCVVPPKPWTGITGGGYWANGRRPLALVRTHSKKALMRYEDVYMPEVYKAINIAQNTAWKINKKVLAVANVITKWKHCPVEDIPAIEREELPMKPEDIDMNPEALTAWKRAAAAVYRKDKARKSRRISLEFMLEQANKFANHKAIWFPYNMDWRGRVYAVSMFNPQGNDMTKGLLTLAKGKPIGKEGYYWLKIHGANCAGVDKVPFPERIKFIEENHENIMACAKSPLENTWWAEQDSPFCFLAFCFEYAGVQHHGLSYNCSLPLAFDGSCSGIQHFSAMLRDEVGGRAVNLLPSETVQDIYGIVAKKVNEILQADAINGTDNEVVTVTDENTGEISEKVKLGTKALAGQWLAYGVTRSVTKRSVMTLAYGSKEFGFRQQVLEDTIQPAIDSGKGLMFTQPNQAAGYMAKLIWESVSVTVVAAVEAMNWLKSAAKLLAAEVKDKKTGEILRKRCAVHWVTPDGFPVWQEYKKPIQTRLNLMFLGQFRLQPTINTNKDSEIDAHKQESGIAPNFVHSQDGSHLRKTVVWAHEKYGIESFALIHDSFGTIPADAANLFKAVRETMVDTYESCDVLADFYDQFADQLHESQLDKMPALPAKGNLNLRDILESDFAFA
Protein B1 has a fluorescence (arbitrary units), RNA polymerase activity, 10 mM DTT in reaction mixture (arbitrary units) of 12.4 and a fluorescence (arbitrary units), RNA polymerase activity, no reducing agent (arbitrary units) of 8.09.
